# Reference: the BET-seq Pho4 binding data (Le et al. 2018)
# The list shows a part of the results. These are noisy estimates, calculated here from bound and input reads.
# Target: T1, Pho4 (S. cerevisiae) (UniProt P07270)
# T1 sequence: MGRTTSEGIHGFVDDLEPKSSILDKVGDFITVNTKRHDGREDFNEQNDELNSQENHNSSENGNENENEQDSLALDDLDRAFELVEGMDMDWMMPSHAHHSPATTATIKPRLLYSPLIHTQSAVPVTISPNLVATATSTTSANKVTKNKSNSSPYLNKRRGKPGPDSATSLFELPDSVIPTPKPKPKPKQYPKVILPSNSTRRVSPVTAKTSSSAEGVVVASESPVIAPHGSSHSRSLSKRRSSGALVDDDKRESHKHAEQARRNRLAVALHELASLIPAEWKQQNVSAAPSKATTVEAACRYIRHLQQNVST
# Test: relative binding free energy (BET-seq); higher = weaker binding
# Details: reference: library average
row,Sequence,relative binding free energy [kcal/mol]
1,AGTAGCACGTGTGTGA,-0.11
2,GTTAGCACGTGTAGTC,0
3,AAGTACACGTGGGATT,0.04
4,GGGTACACGTGAGTGA,0.27
5,AGATACACGTGTTGAG,0.19
6,ACGAACACGTGTGTGG,0
7,GTGCGCACGTGTTTAA,-0.05
8,GTAGTCACGTGTGAAT,0.13
9,TCGTACACGTGGATGT,0.14
10,GGTGACACGTGGCTTG,0.04
11,TGGAGCACGTGGTACT,-0.19
12,TGTAACACGTGCGGGT,-0.04
13,TGTAGCACGTGCAGTT,-0.04
14,GGCGGCACGTGAGGGC,0.18
15,GTATGCACGTGATTTA,0.06
16,GAGTACACGTGGGCTG,-0.01
17,GAACTCACGTGTGGTT,0.26
18,GATTTCACGTGTGGAG,0.24
19,TGGGTCACGTGAAAGA,0.31
20,GTTTTCACGTGGGCGT,0.21
21,ATCGACACGTGGTTTT,0.07
22,TACTGCACGTGGTATG,-0.16
23,ATAGTCACGTGGGGCC,-0.05
24,TGTTACACGTGGCTCT,0.16
25,TTTTTCACGTGCTTTA,0.17
26,TCGCGCACGTGTAGTG,-0.11

row,Sequence,relative binding free energy [kcal/mol]
1,TTGGCCACGTGGGGTG,-0.26
2,AGATTCACGTGTGTTC,0.35
3,AGGGTCACGTGTAGGA,0.22
4,GGTAGCACGTGTGGCT,-0.02
5,CGGATCACGTGTTTTA,0.13
6,ATATTCACGTGATGCG,0.23
7,AAGTGCACGTGGTGCG,-0.2
8,CCGGACACGTGGGTGT,-0.15
9,AGTGGCACGTGCATGT,-0.33
10,TGCGTCACGTGTTGGA,0.21
11,TGTTACACGTGTTGTG,0.03
12,TCAATCACGTGTGAGG,0.24
13,ATTAGCACGTGGGTGA,-0.19
14,CATGGCACGTGAGTGA,0.06
15,TAGTGCACGTGAGAGA,0.33
16,ATTAGCACGTGCGGTA,-0.14
17,TAATGCACGTGGATTT,0.09
18,GTGTTCACGTGAACTT,0.38
19,TTGCTCACGTGTTGTC,0.22
20,ATCTGCACGTGTGGAG,0.08
21,AGGGACACGTGAAGGG,0.24
22,ATTGGCACGTGGCGGC,-0.26
23,TTCTACACGTGGGTGT,-0.03
24,GTATGCACGTGTTATT,0.07
25,ATGAGCACGTGGAAGA,0.09
26,AGGCTCACGTGATTTT,0.25

row,Sequence,relative binding free energy [kcal/mol]
1,ATTTGCACGTGGATTA,-0.03
2,CATTGCACGTGATAGG,0.08
3,CGGAACACGTGTGGTT,0.18
4,GATATCACGTGGGAAG,0.04
5,GAGTGCACGTGTCGAG,0.05
6,GTGGCCACGTGCAGGT,-0.06
7,CAGTGCACGTGTAGGG,-0.08
8,TTGTGCACGTGTGGTA,0.03
9,GAAAACACGTGGGGAG,-0.01
10,TGTTACACGTGGGCAA,0
11,GTGGTCACGTGCAGTC,0.21
12,GTTTACACGTGGGGAT,0.03
13,AGCGTCACGTGGGGTA,-0.19
14,CTTTGCACGTGTGGTG,0.08
15,TATTGCACGTGTGCGG,-0.19
16,AGTTCCACGTGTTAGT,0.08
17,AGGTACACGTGGAGGG,0.03
18,GTGGGCACGTGTAGTT,0.01
19,GGGATCACGTGAGAGT,0.4
20,TTAGGCACGTGGGCCT,-0.15
21,ATGGTCACGTGCCGTT,0.05
22,GGTATCACGTGTGAGC,0.36
23,CATGGCACGTGACTGG,0.13
24,TGCCGCACGTGGGGTT,-0.09
25,CATTTCACGTGCTGGT,0.32
26,GTCCACACGTGGTGGT,0.04

row,Sequence,relative binding free energy [kcal/mol]
1,ATGAGCACGTGGATGG,-0.06
2,CGAGTCACGTGTTTTA,0.2
3,GTAGGCACGTGTTGCC,0.13
4,TGTTACACGTGGATCT,0.15
5,GGTCTCACGTGGGTGG,0.03
6,ATAGACACGTGGTATG,-0.09
7,TTTCGCACGTGGGGCG,-0.15
8,TTATACACGTGAAGTA,0.35
9,TGCGGCACGTGTGGGT,-0.02
10,GGGATCACGTGCAGGA,0.19
11,TCGGTCACGTGTATTG,0.08
12,GTGGTCACGTGTGTCC,0.15
13,TTGGGCACGTGAATGA,0.08
14,TTTGCCACGTGTTTAC,0.07
15,GGGAGCACGTGTAAGT,-0.08
16,GGGGGCACGTGCCGGA,-0.17
17,TAATGCACGTGAGGAG,0.12
18,GTTGACACGTGTGCTA,0.06
19,GGAGTCACGTGGGGGA,0.03
20,GGTTGCACGTGGACCG,-0.02
21,TGAGTCACGTGGGGCC,0.05
22,AGGCGCACGTGGGAGG,-0.15
23,TGTTGCACGTGGGAGC,-0.16
24,GGTCCCACGTGGTGGT,0.12
25,ATATGCACGTGTGTAG,-0.06
26,CCTGTCACGTGGTGTG,0.1

row,Sequence,relative binding free energy [kcal/mol]
1,TGTAACACGTGATATA,0.13
2,AGGGTCACGTGAATCT,0.31
3,GTTTACACGTGTCAGT,0.2
4,TTGGGCACGTGTCGAT,0.05
5,TTTGGCACGTGTTCTG,0.01
6,GGGATCACGTGGAGGC,0.15
7,GAGGGCACGTGTCGAT,-0.07
8,GTTGGCACGTGTTGTA,-0.11
9,CTTGCCACGTGTGGGT,-0.1
10,ATATGCACGTGTGGAA,-0.02
11,TCGGGCACGTGAGTAT,0.07
12,GAGGACACGTGTTGGT,0.19
13,GGCGGCACGTGGTTGT,-0.16
14,AGAAGCACGTGTTCGG,-0.07
15,GATGGCACGTGTAGCG,0.14
16,TAGATCACGTGCTGGT,0.09
17,ATGTACACGTGGAGTA,0.06
18,TGTAGCACGTGTTGGT,0.03
19,AGGGCCACGTGAGGGA,0.14
20,ATATGCACGTGCTGTA,-0.15
21,GTGGTCACGTGTTGGT,0.18
22,GTTCACACGTGTTGTT,0.16
23,GTTCGCACGTGGTCGT,-0.09
24,TCGGACACGTGTGAGG,0.1
25,GTGGGCACGTGCGCAG,-0.31
26,TAGTTCACGTGGGCCT,0.07

row,Sequence,relative binding free energy [kcal/mol]
1,GTAATCACGTGATTGG,0.3
2,TATAGCACGTGACTGG,-0.06
3,TTGTACACGTGTATTA,0.04
4,TTTTACACGTGATTTT,0.31
5,GGAGACACGTGAGTTA,0.39
6,TCTTGCACGTGCAGGT,0.07
7,AATCTCACGTGTGGAG,0.42
8,CGTGGCACGTGTAGTG,-0.21
9,ACTTGCACGTGTGTAT,0
10,GGGGACACGTGGGCTG,-0.14
11,TGCGGCACGTGAGGTG,0.03
12,ATCGGCACGTGGTTTA,-0.27
13,CTGGACACGTGTGGTT,-0.02
14,TGAATCACGTGTTCGT,0.13
15,GTCAACACGTGGAGGG,0.07
16,TAGTACACGTGGTAGT,-0.01
17,GTGTCCACGTGGGGGA,0
18,GCTTGCACGTGAGGTT,0.1
19,GGAGCCACGTGTGTTG,0.1
20,GGTGTCACGTGCGCTG,-0.09
21,GTGTGCACGTGTACTT,0.02
22,ATAGTCACGTGCGTGA,0
23,GTGGGCACGTGCGCGT,-0.25
24,GTGTACACGTGCGGGC,0.16
25,GGGCGCACGTGTGTTA,0.02
26,TTAACCACGTGAGGTT,0.29

row,Sequence,relative binding free energy [kcal/mol]
1,TGTTTCACGTGCTCTT,0.25
2,TGTGGCACGTGCTAGC,-0.22
3,GAGGACACGTGTGGCG,0.08
4,AAGTTCACGTGTTTCT,0.27
5,TATCGCACGTGTGAGG,0.14
6,CGGTGCACGTGAGGAG,0.14
7,TTGAGCACGTGGTATC,-0.19
8,ATTGACACGTGAGGGC,0.14
9,TAGGTCACGTGGTGTG,0.09
10,ATGAACACGTGGGGTT,-0.19
11,AAAATCACGTGAGGGT,0.16
12,GTGCACACGTGGTGGA,0.05
13,ATATTCACGTGCAGGG,0.31
14,ATGGTCACGTGTTGAG,0.24
15,GTCAACACGTGTTAGT,0.01
16,ACATTCACGTGGTTAT,0.22
17,TTAAGCACGTGAGAAG,0.21
18,GGTTGCACGTGGAGAA,0.14
19,AGTAGCACGTGGGTGC,-0.35
20,CGGCGCACGTGGCTGG,-0.19
21,CAATGCACGTGCGGTG,0
22,CGGGTCACGTGAAGTC,0.39
23,AGGAGCACGTGTAGTC,0.02
24,GTAGGCACGTGGCATG,-0.17
25,GTGTTCACGTGGGAAT,0.17
26,TGGTTCACGTGGCGAG,0.15

row,Sequence,relative binding free energy [kcal/mol]
1,GGAGACACGTGTTGAG,0.17
2,GAGATCACGTGGAGAT,0.37
3,TTAGCCACGTGAGGTG,0.23
4,TGGGTCACGTGGGGCT,-0.06
5,ACTTTCACGTGGTTTA,0.18
6,GATAGCACGTGAGTTA,0.14
7,CTGGGCACGTGGTAGA,-0.25
8,GATGTCACGTGTCCGG,0.18
9,GACTTCACGTGGGGCT,0.38
10,GTTTACACGTGAGGTA,0.38
11,GTTTGCACGTGTACGT,0.13
12,GTTTGCACGTGGCTCG,0.05
13,TTTACCACGTGGTGAT,-0.04
14,ATGAGCACGTGGGCGG,-0.27
15,AGGGTCACGTGCGTGA,0.08
16,GAGGGCACGTGCGCGT,-0.28
17,GGCTTCACGTGGAGAG,0.26
18,TAGGGCACGTGTACTA,-0.15
19,TGGTGCACGTGTTCAT,0.02
20,GTGGACACGTGGTGTT,0.02
21,GGTTACACGTGAGAGG,0.39
22,TCGGGCACGTGTGTCG,-0.01
23,TTGGGCACGTGTCATC,0.11
24,TAGTGCACGTGAAGGC,0.17
25,ATTATCACGTGATGGT,0.22
26,GGAGTCACGTGGCCGG,0.06

row,Sequence,relative binding free energy [kcal/mol]
1,ACGTTCACGTGAGGGA,0.3
2,TGCCTCACGTGTATGT,0.24
3,ATGGGCACGTGTGGGT,0.05
4,GCTCTCACGTGAGTGG,0.4
5,CTAGACACGTGTGGTG,0.1
6,GTAAGCACGTGAATGG,0.25
7,AGGGTCACGTGTGTTT,0.16
8,ATGAGCACGTGGTTGA,-0.07
9,TTTGACACGTGCTGTA,-0.09
10,GGAGTCACGTGAAGTA,0.47
11,GGTGGCACGTGACGCG,0.03
12,TGGGTCACGTGATCAT,0.19
13,TATTTCACGTGATGTC,0.35
14,TGGCGCACGTGGAGAT,-0.1
15,GAAGTCACGTGGGGAA,0.15
16,TGGGACACGTGTGATG,0.2
17,TAAGTCACGTGGGGTG,-0.01
18,TAGGCCACGTGGTGGT,-0.15
19,CATTTCACGTGGTGTG,0.19
20,TCCGTCACGTGGTGAG,0.06
21,TTCGTCACGTGTGTGG,0.09
22,GGTTACACGTGATCGT,0.17
